# Assay results taken from article PMC4336329 (PLoS ONE, 2015).
# The campaign covered roughly 310,000 compounds. About 14,000 (4.5%) showed an effect of 50% or more. Effects have a minus sign here. The list shows a part of the results.
# Biological target: human ether-à-go-go-related gene (hERG) potassium channel (human, UniProt Q12809)
# Experiment: primary screen, population patch clamp on CHO cells stably expressing hERG
# 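Note: peak tail current of the secondary pulse compared with the same well before compound.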
# human ether-à-go-go-related gene (hERG) potassium channel, sequence (Q12809 whole entry, looked up): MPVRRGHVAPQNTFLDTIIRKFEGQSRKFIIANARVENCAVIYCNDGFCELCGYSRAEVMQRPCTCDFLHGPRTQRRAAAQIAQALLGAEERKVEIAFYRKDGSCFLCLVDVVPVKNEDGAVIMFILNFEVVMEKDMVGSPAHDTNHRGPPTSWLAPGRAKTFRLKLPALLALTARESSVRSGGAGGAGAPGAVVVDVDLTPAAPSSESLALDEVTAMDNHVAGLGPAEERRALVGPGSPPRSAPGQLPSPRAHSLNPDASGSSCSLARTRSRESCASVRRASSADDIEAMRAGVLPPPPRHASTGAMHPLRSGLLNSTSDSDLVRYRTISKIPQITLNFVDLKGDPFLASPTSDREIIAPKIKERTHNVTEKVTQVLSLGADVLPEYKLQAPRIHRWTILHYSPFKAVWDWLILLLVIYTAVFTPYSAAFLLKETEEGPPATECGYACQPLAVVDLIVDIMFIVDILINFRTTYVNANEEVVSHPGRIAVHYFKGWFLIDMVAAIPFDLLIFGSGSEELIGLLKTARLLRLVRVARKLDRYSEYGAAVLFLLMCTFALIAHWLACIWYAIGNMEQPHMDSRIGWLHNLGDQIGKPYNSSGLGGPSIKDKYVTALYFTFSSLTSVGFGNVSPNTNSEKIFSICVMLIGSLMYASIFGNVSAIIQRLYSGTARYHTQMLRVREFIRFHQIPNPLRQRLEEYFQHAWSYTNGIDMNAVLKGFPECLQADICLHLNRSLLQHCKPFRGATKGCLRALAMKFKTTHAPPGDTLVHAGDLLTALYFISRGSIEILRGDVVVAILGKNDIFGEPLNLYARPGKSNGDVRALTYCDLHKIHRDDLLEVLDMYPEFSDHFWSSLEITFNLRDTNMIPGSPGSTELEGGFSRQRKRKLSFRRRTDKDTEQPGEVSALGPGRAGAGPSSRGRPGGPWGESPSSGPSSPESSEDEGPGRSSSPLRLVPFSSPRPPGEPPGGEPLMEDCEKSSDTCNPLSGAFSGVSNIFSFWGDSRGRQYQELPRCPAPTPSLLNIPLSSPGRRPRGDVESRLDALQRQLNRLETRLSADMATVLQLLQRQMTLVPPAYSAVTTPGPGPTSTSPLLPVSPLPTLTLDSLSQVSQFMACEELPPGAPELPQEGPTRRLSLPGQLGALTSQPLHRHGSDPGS
row,Structure (SMILES),"hERG current change (%, negative = inhibition) at 10uM"
1,CCN(Cc1ccccc1)S(=O)(=O)c1ccc(C(=O)N(CCCN(C)C)c2nc3c(C)c(C)ccc3s2)cc1.Cl,-3.58%
2,Cn1c(=O)c2cc(S(=O)(=O)NC(Cc3ccccc3)C(=O)NCc3ccco3)ccc2n(C)c1=O (stereo not shown),-33.8%
3,CC1CC(C)CN(c2cc(=O)n(Cc3ccc(F)cc3)c(=O)[nH]2)C1 (stereo not shown),4.83%
4,CCOC(=O)NC(=O)CSc1nc(C)cc(C(F)(F)F)c1C#N,-19.8%
5,CCn1cc(SCC(=O)NCc2ccc3c(c2)OCO3)c2ccccc21,-13.9%
6,CN(Cc1nccn1C)C(=O)CCc1nnc(CCC2CCCCC2)o1,-23.6%
7,Cn1cnnc1SCCn1c(N2CCCCC2)nc2c1c(=O)[nH]c(=O)n2C,9.22%
8,Cc1ccc(-c2nnc(N3CCN(c4ccccn4)CC3)c3ccccc23)cc1,-46.3%
9,O=C1CNC(=S)N1Cc1ccccc1,33%
10,Cc1ccc(NC(=O)C2CCN(C(=O)c3cccs3)CC2)c(C)c1,2.55%
11,O=C1N[C@H](Cc2ccccc2)C(=O)N2[C@@H]3[C@H](C[C@@H]12)c1ccccc1N3OOSc1ccccc1,-38.9%
12,O=C(c1cc2c(F)cccc2s1)N1CCCC1,37.2%
13,CCCN(CC1CC1)C(=O)CCc1nnc(C(OC)c2ccccc2)o1 (stereo not shown),-4.58%
14,Cc1nc2ccc(C(=O)N(C)CC3CCCN(CCc4ccc(Cl)cc4)C3)cc2[nH]1 (stereo not shown),-61.2%
15,CC1CCC(NC(=O)C(NC(=O)c2ccccc2)C(C)C)CC1 (stereo not shown),-4.71%
16,O=C(N/N=C/c1ccc(N2CCOCC2)s1)c1ccc(NS(=O)(=O)c2cccs2)cc1,9.21%
17,O=C(NCc1ccccc1)c1ccc(CS(=O)(=O)c2ccccc2)o1,-13.7%
18,COc1cc(NC(=O)c2cc(-c3ccccc3Cl)on2)cc(OC)c1OC,-35.9%
19,CCC(CO)Nc1ncc([N+](=O)[O-])cc1C#N (stereo not shown),-16.3%
20,Cc1cc(F)c(F)c(C(=O)N2CCOCC2)c1,20.2%
21,Cc1ccc(-n2ncc3c(=O)n(CC(=O)N4CCCCCC4)cnc32)cc1,-5.37%
22,CCCc1cc(=O)[nH]c(SCC(=O)Nc2ccc(Cl)c(S(=O)(=O)N3CCOCC3)c2)n1,-0.519%
23,Cc1cc(F)ccc1S(=O)(=O)N1CCCOC1CNC(=O)C(=O)NCCC1=CCCCC1 (stereo not shown),13.3%
24,Cc1ccccc1-n1c(O)c(/C=C2/C(c3ccccc3)=Nc3ccccc32)c(=O)[nH]c1=O,-11.4%
25,COc1ccc(C(=O)Oc2ccc(N(C)S(=O)(=O)c3ccccc3)cc2)cc1[N+](=O)[O-],-14.6%
26,O=C(Cn1nnc(-c2ccccc2)n1)N/N=C/c1cc([N+](=O)[O-])ccc1O,-12.1%
27,ClCC1NCC(c2ccccc2Cl)c2c1[nH]c1ccccc21 (stereo not shown),0.482%
28,COCCN(C(=O)Cc1cccs1)C(C(=O)NCc1ccc(OC)cc1)c1ccc(OC)cc1 (stereo not shown),-47.6%

row,Structure (SMILES),"hERG current change (%, negative = inhibition) at 10uM"
1,Cc1nn(Cc2ccc(C(=O)N/N=C/c3ccncc3)o2)c(C)c1Cl,-49.1%
2,CCC(=O)N1CCN(c2nc3ccccc3s2)CC1,-16.8%
3,CC(=O)NC1C(OCc2ccccc2)OC2COC(C)(C)OC2C1O (stereo not shown),18.3%
4,CCOC(=O)C1(C(=O)O)NC(=O)CC1c1ccccc1 (stereo not shown),-0.636%
5,CN1CCN(Cc2ccc(OCc3ccccc3)cc2)CC1,-20.5%
6,COc1cc(CCCN2C(N)=NC[C@@H]2Cc2ccc(O)cc2)cc(OC)c1OC,22.9%
7,Cc1nn2c(=O)c(NC(=O)c3ccc(F)cc3)cnc2s1,16.6%
8,O=C(NC1=NCCS1)C12CC3CC(C1)CC(C(=O)NC1=NCCS1)(C3)C2,21.9%
9,CC(C)C(=O)NC(c1ccco1)c1ccc2cccnc2c1O (stereo not shown),-1.83%
10,CCOC(=O)c1cnc(-n2nc(C)cc2C)nc1NNc1nc(C)cc(C)n1,2.99%
11,COc1ccc(C(C#N)N2CCC(c3ccccc3)=N2)cc1OC (stereo not shown),7.77%
12,Cc1cc(C)c(NC(=O)CNC(=O)c2cc(C3CC3)nn2-c2ccccc2)c(C)c1,-4.74%
13,O=C(Nc1ccon1)Nc1cc(Cl)ccc1Cl,5.01%
14,Clc1ccc(-c2nnc(-c3ccc(Br)o3)o2)c(Cl)c1,-0.684%
15,CC(=O)C(C)Oc1ncn(-c2ccccc2)n1 (stereo not shown),8.73%
16,Cc1cccc(C(=O)Nc2ccc(N3CCN(c4ccc(C(F)(F)F)cn4)CC3)nc2)c1,11.7%
17,COCCN(C(=O)Cc1cccs1)c1nnc(-c2cccnc2)s1,0.165%
18,C/C(=N/NC(=O)CNC(=O)CCc1ccccc1)c1ccc(Cl)cc1,-12.3%
19,O=[N+]([O-])c1cc([N+](=O)[O-])c2nonc2c1Nc1ccc(O)cc1,-56.9%
20,COc1ccccc1C(=O)COC(=O)c1ccc(-n2cnnn2)cc1,-2%
21,COc1ccc(NC(=O)N2CCCC(c3nc(-c4ccc(F)cc4)no3)C2)cc1 (stereo not shown),-20.3%
22,Nc1nc(SCC(=O)c2cc3ccccc3o2)n[nH]1,-7.14%
23,O=C(CCc1ccccc1)NNC(=O)c1ccc(Br)cc1,8.17%
24,O=C1c2ccccc2C(Nc2ccc(Cl)cn2)N1Cc1ccccc1 (stereo not shown),-6%
25,COc1ccc(/C=N\NC(=O)c2ccccc2Br)cc1COc1ccccc1,-2.22%
26,CCOC(=O)C1(CCOc2ccccc2)CCN(Cc2cccc3c2OCO3)CC1,-64.6%
27,Cc1ccc(CSCCNC(=O)CN(c2cc(C)ccc2C)S(C)(=O)=O)cc1,-23.5%
